According to PubChem BioAssay AID1240 (Sanford-Burnham Center for Chemical Genomics, 2008):
In all, about 50,000 compounds went through this assay and about 800 (1.6%) showed an effect of 50% or more. The list shows a part of the results.

These molecules were tested against Bcl-2-like protein 10 (Homo sapiens) (UniProt Q9HD36) (assay: TR3 peptide-Bcl-B binding displacers, biochemical primary FP assay, phenotype converters (AID 1240;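 note: 0% = Bcl-B with tracer peptide and DMSO and 100% = tracer peptide lacking Bcl-B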)). Details: GST-Bcl-B / FITC-TR3 peptide fluorescence polarization; stronger effect = higher value; compound at 3.75 mg/L.
UniProt Q9HD36, sequence (Q9HD36 whole entry, looked up): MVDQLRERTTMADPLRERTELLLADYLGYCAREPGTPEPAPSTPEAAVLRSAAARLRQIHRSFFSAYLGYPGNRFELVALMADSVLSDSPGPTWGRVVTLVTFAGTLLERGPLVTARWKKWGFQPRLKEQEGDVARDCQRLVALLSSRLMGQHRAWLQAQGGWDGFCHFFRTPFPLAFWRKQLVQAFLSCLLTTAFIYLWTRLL

Row | SMILES | displacement
1 | O=C(O)c1ccc(NC(=S)N/C(=N/S(=O)(=O)c2ccc(Cl)cc2)c2ccccc2)cc1 | 11.4%
2 | Cc1ccc(C)c(OCC(=O)N/N=C/c2ccc(OC(=O)c3ccc4c(c3)OCO4)cc2)c1 | 0.1%
3 | C=C(C)C(=O)Nc1cccc(C(=O)c2cccc(NC(=O)C(=C)C)c2)c1 | 13.6%
4 | Cc1ccc(S(=O)(=O)N/N=C/c2cc(Br)cc(Br)c2O)cc1 | 9.1%
5 | CCOC(=O)c1cccc(N2C(=O)C3C4c5ccccc5C(CC)(c5ccccc54)C3C2=O)c1 (stereo not drawn) | -17.4%
6 | Cc1ccc2[nH]c(C)c(CC(=O)N/N=C/c3ccc[nH]3)c2c1 | 7.3%
7 | Cc1ccc(CN2CCN(Cc3ccncc3)CC2)cc1 | 6.8%
8 | O=S(=O)(NC1c2ccccc2Oc2ccccc21)c1ccccc1 | -0.2%
9 | CN1CCN(C(=O)c2cnn3c2NC(c2ccc(Br)cc2)CC3C(F)(F)F)CC1 (stereo not drawn) | 0.5%
10 | COc1cc(/C=C2/SC(=S)N(C)C2=O)ccc1OCCOc1ccc(Br)cc1 | 2.3%
11 | CCOc1ccc(/C=C2\C(=O)NC(=O)N(c3cccc(Br)c3)C2=O)cc1Cl | -1%
12 | N/C(Cc1ccc([N+](=O)[O-])cc1)=N\OC(=O)c1ccc([N+](=O)[O-])cc1 | -11.5%
13 | COc1ccc(Br)cc1/C=C/C(=O)Nc1ccc(C(C)=O)cc1 | -35.6%
14 | CC1(C)Cc2ccccc2C(N/N=C/c2ccc(Cl)cc2)=N1 | -3.6%
15 | Cc1ccc(NNC(=O)C(O)(c2ccccc2)c2ccccc2)c(Br)c1 | -6.3%
16 | CC(NC(=O)CN1CCCCC1)C1COc2ccccc2O1 (stereo not drawn) | -7.7%
17 | COC(=O)C1=C(C)NC(=O)NC1c1ccc(OC(C)C)cc1 (stereo not drawn) | 0.3%
18 | COc1ccccc1NC(=O)c1ccc(N2C(=O)c3ccc([N+](=O)[O-])cc3C2=O)cc1 | 3.3%
19 | CCC1=NN2C(=N)/C(=C/c3ccc(OC(=O)c4ccc(Cl)cc4)c(OC)c3)C(=O)N=C2S1 | 0.8%
20 | CCCOc1ccc(C2NC(=O)NC(C)=C2C(=O)OCC2CCCO2)cc1 (stereo not drawn) | 1.7%
21 | O=C(NC(NC(=O)c1ccco1)c1ccc(F)cc1)c1ccco1 | -13.7%
22 | CC(Oc1ccccc1)C(=O)Nc1ccc(C(N)=O)cc1 (stereo not drawn) | -4.3%

Row | SMILES | displacement
23 | Cc1occc1C(=O)N/N=C/c1ccc(Cl)cc1 | 3.9%
24 | C=CCn1c(SCc2ccc(C(=O)NCCO)cc2)nc2sc(C)c(C)c2c1=O | -5.2%
25 | CC1CCN(C(=O)c2ccccc2NC(=O)c2ccco2)CC1 | 1.7%
26 | CCCOc1ccc(N2C(=O)CC(N3CCC(O)CC3)C2=O)cc1 (stereo not drawn) | -3.5%
27 | CC1=C(C(=O)OCCc2ccccc2)C(c2ccccc2Cl)NC(=O)N1 (stereo not drawn) | 1.9%
28 | COc1ccc(/C=C2\SC(=S)N(Cc3ccco3)C2=O)cc1OC | 21.8%
29 | N#Cc1c(-c2ccc(Br)cc2)cc(-c2ccc3c(c2)OCO3)c(C#N)c1N | 4.5%
30 | Cc1cc(C)n(-c2ccc3cccc([N+](=O)[O-])c3n2)n1 | 2.2%
31 | CCOC(=O)CCc1c(C)nc2cc(-c3ccc(C)cc3)[nH]n2c1=O | -0.8%
32 | Cc1ccc(S(=O)(=O)NCCSc2ccccn2)cc1[N+](=O)[O-] | -8.2%
33 | CCOc1cc(/C=C/C(=O)O)cc(I)c1OC | -15.9%
34 | O=C(COc1ccc([N+](=O)[O-])cc1)Nc1ccc2oc(-c3cccc(Cl)c3)nc2c1 | 12.7%
35 | Clc1ccc(Cn2c(CNc3ccc(Cl)cc3)nc3ccccc32)cc1 | 7.8%
36 | Cc1cc(Br)ccc1N1C(=O)/C(=C/c2cccs2)C(=O)NC1=S | -5.1%
37 | CN1CCN(C(=O)c2cc3nc(-c4ccc(Cl)c(Cl)c4)cc(C(F)(F)F)n3n2)CC1 | -8.1%
38 | CCOc1ccc(N2C(=O)NC(=O)/C(=C\c3ccc(-c4ccc([N+](=O)[O-])cc4OC)o3)C2=O)cc1 | 23%
39 | O=C(CCC1CCCCC1)NCCc1ccccc1 | -3%
40 | O=C(NCc1cccnc1)c1cc(-c2ccccc2)nc2ccccc12 | -18%
41 | CCOC(=O)N1CCN(C(=O)Nc2ccc3nc(-c4ccccc4)c(-c4ccccc4)nc3c2)CC1 | -10.5%
42 | OCCCN=Cc1c(O)n(-c2c(Cl)cccc2Cl)c2ccccc12 | -8.9%
43 | Cc1ccc(N2C(=O)C(Cl)=C(N3CCOCC3)C2=O)c(C)c1 | 9.2%
44 | COc1ccc(NC(=O)CN(c2ccc(F)cc2)S(=O)(=O)c2ccccc2)cc1OC | -1.7%

Row | SMILES | displacement
45 | CCOc1ccc(N2COc3ccc4ccccc4c3C2)cc1 | 9.1%
46 | CCOC(=O)c1c(NC(=O)c2ccccc2OC)sc(C(=O)Nc2ccccc2F)c1C | -2.3%
47 | CCOC(=O)CSc1nsc(SCC(=O)OCC)c1C#N | 1.8%
48 | COc1ccc(-c2noc(-c3ccc(C(C)(C)C)cc3)n2)cc1OC | 0.5%
49 | CC(=O)COc1ccc2c(-c3ccccc3)cc(=O)oc2c1 | 14.2%
50 | COc1ccccc1Nc1ncc(F)c(N2CCOCC2)n1 | 6.4%
51 | CCC(=O)Nc1ccc(I)cc1Cl | 7.5%
52 | O=C1c2ccccc2-c2ccc(S(=O)(=O)Nc3ccc(S(=O)(=O)Nc4nccs4)cc3)cc21 | 4.3%
53 | CC1(C)CC(=O)C(C(/C=C/c2ccccc2)C2=C(O)CC(C)(C)CC2=O)C(=O)C1 (stereo not drawn) | 6.5%
54 | COc1ccc(C2Nc3ccc(C(=O)c4ccccc4)cc3NC3=C2C(=O)CCC3)c(OC)c1 (stereo not drawn) | -5.3%
55 | O=C(N/N=C/CCc1ccccc1)c1cccc([N+](=O)[O-])c1 | 0.9%
56 | CCN(CC)c1ccc(/C=C2\SC(=S)NC2=O)c(OC)c1 | -5%
57 | Cc1cc(C)c(OCCN2CCCC2)c(Cl)c1 | 7.1%
58 | CC1=C(C#N)c2nc(N)c(C#N)c(C)c2/C1=C/c1ccc(-c2ccccc2[N+](=O)[O-])o1 | 1.3%
59 | O=C(Nc1cccc2nsnc12)c1ccc(Br)o1 | 69.6%
60 | CCC(C(=O)Nc1cc(Cl)ccc1OC)c1ccccc1 (stereo not drawn) | -3%
61 | COc1cc(OC)c(OC)cc1CNCC1COc2ccccc2O1 (stereo not drawn) | -9.7%
62 | CCc1ccc2oc(-c3cccc(NC(=O)/C=C/c4cccc([N+](=O)[O-])c4)c3)nc2c1 | -19.1%
63 | O=C(O)CCCN1C(=O)/C(=C\c2cccc(O)c2)SC1=S | 0.6%
64 | CCOC(=O)c1ccc(Nc2nc3nonc3n3cnnc23)cc1 | -10%
65 | Cn1c(C(=O)c2ccccc2)nc2ccccc21 | 10.1%
66 | N#CSc1cnc(NC2CCCCC2)s1 | -5.8%

Row | SMILES | displacement
67 | Cn1c(O)c(N=NC(=O)COc2ccc3ccccc3c2)c2ccccc21 | 32.7%
68 | Cc1oc2ccc(OCC(=O)OCc3ccccc3)cc2c1C(=O)OC(C)C | 8.1%
69 | Cc1ccc(OCC(=O)NCCCN2CCOCC2)c(Br)c1 | 4.3%
70 | CN=C(Nc1ccc(I)cc1)SC1CC(=O)N(c2ccccc2F)C1=O (stereo not drawn) | 0.1%
71 | COc1cccc(-c2nc(-c3ccccc3)no2)c1 | -6.1%
72 | O=C(O)C1C2CCC(C2)C1C(=O)Nc1nc2ccccc2s1 (stereo not drawn) | 1.4%
73 | CS/C(N)=N\N=C\c1cc([N+](=O)[O-])ccc1O | -8.3%
74 | COc1cccc(OCCOc2ccc(/C=N/n3cnnc3)cc2OC)c1 | -8.1%
75 | O=c1[nH]c(-c2ccc(-c3ccc(F)cc3)o2)nc2sc3c(c12)CCCC3 | -13.3%
76 | Cc1ccccc1C(=O)Nc1nc2ccc(Cl)cc2s1 | 2.6%
77 | Cc1ccc2oc(-c3ccc(NC(=O)Cc4ccccc4)cc3O)nc2c1 | 7.1%
78 | Cc1c(C(=O)NCCc2ccccc2)cccc1[N+](=O)[O-] | -8%
79 | COC(=O)c1cc(-c2cccs2)nc2ccccc12 | -2.7%
80 | CC(C)Oc1ccc(/C=N/NC(=O)C(=O)NC2CCCC2)cc1 | 10.8%
81 | O=S(=O)(NC(c1cccs1)C(Cl)(Cl)Cl)c1ccc(Cl)cc1 (stereo not drawn) | 7%
82 | COc1ccc(CCNC(=O)CSc2nc3ccccc3s2)cc1OC | 0.6%
83 | CC(=O)Nc1sc(C(=O)OC(C)C)c(C)c1C(N)=O | -1.2%
84 | CCOc1cc(C(=O)Nc2ccc(Br)cc2F)cc(OCC)c1OCC | -2.8%
85 | COc1cccc(C(=O)N2CCN(Cc3ccc(Cl)cc3)CC2)c1 | -17%
86 | O=C1CC(N2CCN(Cc3ccc4c(c3)OCO4)CC2)C(=O)N1Cc1ccc(Cl)cc1 (stereo not drawn) | -3.1%
87 | CC(Oc1ccccc1)C(=O)Nc1ccccc1C(=O)O (stereo not drawn) | 1.7%
88 | O=C(Nc1ccc([N+](=O)[O-])cc1)C1CC(=O)N(c2ccc(Cl)cc2)C1 (stereo not drawn) | 14.3%

Row | SMILES | displacement
89 | CCOc1cc(/C=N/NS(=O)(=O)c2ccc(OC)cc2)ccc1OCCN1CCOCC1 | -5.7%
90 | CCOc1cc(/C=N/Nc2nc3ccccc3s2)ccc1OCc1ccccc1 | 3.3%
91 | CC(=O)NC(CCC(=O)OCc1ccccc1)C(=O)Nc1ccc(C)cc1 (stereo not drawn) | 18.3%
92 | CC(C)N1CCC(=NNC(=O)c2cccc([N+](=O)[O-])c2)CC1 | -6.4%
93 | O=C(Nc1ncn[nH]1)c1ccc(F)cc1 | 2.7%
94 | COc1cc(/C=N/N2CCN(c3ccccc3OC)CC2)ccc1OC(C)=O | 11.9%
95 | COc1ccc(/C=C(/NC(=O)c2ccccc2Br)C(=O)NC(Cc2ccccc2)C(=O)O)c(OC)c1 (stereo not drawn) | -6.3%
96 | COC(=O)c1ccc(/C=C2/SC(=O)N(CNc3ccc(Br)cc3C)C2=O)cc1 | -2.8%
97 | CCN1C(=O)/C(=C\c2ccc(OC)c([N+](=O)[O-])c2)C(C(=O)OC)=C1C | -20.8%
98 | CCOc1ccc(/C=C(\NC(=O)c2ccc(C)cc2)c2nc3ccccc3[nH]2)cc1 | -7.4%
99 | CCOC(=O)c1ccccc1NC(=O)c1sc(NC(=O)c2ccc3c(c2)OCO3)c(C(=O)OCC)c1C | -18.9%
100 | COc1cc(NC(=O)COc2cccc3ccccc23)cc(OC)c1 | 4.1%
101 | Cc1c(OCC(=O)O)ccc2c3c(c(=O)oc12)CCCC3 | -9%
102 | C=CCN1C(=O)/C(=C\c2cc(OC)cc(OC)c2)SC1=S | 0.5%
103 | O=C1NN(c2ccccc2)C(=O)/C1=C/c1ccc(-c2ccccc2)o1 | 3%
104 | C/C(CCc1oc2c(Br)cc(Br)cc2c1-c1ccc(C)o1)=N\O | 2.3%
105 | O=Cc1cccc(OCc2ccc(F)cc2)c1 | 6.3%
106 | CC1(C)C2CC3C(C)(O)C(c4ccccc4)P(=O)(Cc4ccccc4)C3(C)CC21 (stereo not drawn) | 8.3%
107 | O=C(O)CCC(=O)Nc1nc(-c2cccc3ccccc23)cs1 | 12.7%
108 | CCOc1cccc(C(=O)Nc2ccc(Br)cc2C(=O)O)c1 | 11.9%
